Some of the results follow.

This test concerns the target T1, OsWOX13 (Oryza sativa, UniProt Q5QMM3 1-267).
T1 sequence: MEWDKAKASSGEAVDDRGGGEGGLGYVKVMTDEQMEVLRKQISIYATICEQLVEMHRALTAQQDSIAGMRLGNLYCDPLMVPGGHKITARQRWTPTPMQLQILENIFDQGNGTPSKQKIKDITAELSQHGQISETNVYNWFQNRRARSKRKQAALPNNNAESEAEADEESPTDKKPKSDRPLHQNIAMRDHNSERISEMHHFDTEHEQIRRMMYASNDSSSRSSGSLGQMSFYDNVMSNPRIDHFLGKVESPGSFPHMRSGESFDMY
Briefly: protein-binding microarray (RPBM); PBS, 2% BSA, 51.3 ng/ul salmon testes DNA, 50 uM zinc acetate, 200 nM TF, 25 C, 1 h; high values mean tight binding. Conditions: protein: recombinant; tags: N-terminal polyhistidine and DsRed monomer fusion (pET32a); label: CyDye5-dUTP incorporated in the synthesized complementary strand; 3' TTTTT single-stranded linker to array surface; dsDNA, one strand shown. In short, it runs like this:
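The binding signal is fluorescence intensity per array feature (arbitrary units). Readings came from an Axon 4000B scanner after a washed, 2% BSA-blocked, double-stranded custom Agilent array had been incubated for 1 h at 25 °C with 200 nM protein and 50 µM zinc acetate. The protein was a Ni–NTA-purified transcription factor fused N-terminally to polyhistidine and DsRed, expressed in E. coli BL21-CodonPlus.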
As to “ATAACAGATAGATAGGCTACCCCAAATATTGTACCAGTGTCGGAGTCACCTAGTGCAG”, the binding signal is 18300 fluorescence intensity (a.u.).

Consider “CGCCATGATTTTACTATACTTAGCCTAACTAATGCTGTCCCGGAGTCACCTAGTGCAG”, for which the binding signal was 9060 fluorescence intensity (a.u.).

As for “ATGATGAGAGGTCTAAATTAAAAGATATCTAACAGACTGACGGAGTCACCTAGTGCAG”, the binding signal was 4400 fluorescence intensity (a.u.).

Turning to “AGTTGTATTGATGGATAGGTTGGTGAGGGGTATTAAATGGCGGAGTCACCTAGTGCAG”, the binding signal was 12500 fluorescence intensity (a.u.).

As for “TTCTTGGTAATCAATCGAATGATCTATAGCTGAAAATTAACGGAGTCACCTAGTGCAG”, the binding signal is 7100 fluorescence intensity (a.u.).

For “GTTAACTGAAGATTTGGGAGTTGTGAGGAACAATACAAGCCGGAGTCACCTAGTGCAG”, the binding signal is 3600 fluorescence intensity (a.u.).

Regarding “CAATTGTCCGGATTGAGATATGACTGAAGCGGATGCTGGACGGAGTCACCTAGTGCAG”, the binding signal was 3220 fluorescence intensity (a.u.).

As for “GTAATAGACGAGGCCCATACAAACAGCCATCAAGGCCCAACGGAGTCACCTAGTGCAG”, the binding signal was 5560 fluorescence intensity (a.u.).

Consider “CAAATTTGTAATAATTAATACTTAATTAATCATATGCTAACGGAGTCACCTAGTGCAG”, for which the binding signal was 43000 fluorescence intensity (a.u.).

In the case of “GTCACTTTCTTTTGTCGATTGACAGAGTCTCGTGCAATTGCGGAGTCACCTAGTGCAG”, the binding signal is 4740 fluorescence intensity (a.u.).

As for “ATGATTATACATTATCATGATAATACGAACAGCATGTGCACGGAGTCACCTAGTGCAG”, the binding signal was 39100 fluorescence intensity (a.u.).

In the case of “TTGATCTTAATTTGGTGACATTTTGTTCTAAGCAAAGTGTCGGAGTCACCTAGTGCAG”, the binding signal is 17700 fluorescence intensity (a.u.).

With “AATTTTGATTTTGAACGGCACCGAACGCAGCAAATGGCATCGGAGTCACCTAGTGCAG”, the binding signal was 3650 fluorescence intensity (a.u.).

In the case of “TGAATTGATTCGTTAGTACATAATTAAGTACTACATCTATCGGAGTCACCTAGTGCAG”, the binding signal was 9210 fluorescence intensity (a.u.).

On to “AATCAATCTTTTGTCTGTTGGATGCACGATGAATCTCAACCGGAGTCACCTAGTGCAG”, for which the binding signal is 3600 fluorescence intensity (a.u.).

With “GACAAAATCATGCTACCAATTTGATTTGTGATCTTCCGATCGGAGTCACCTAGTGCAG”, the binding signal was 14700 fluorescence intensity (a.u.).

On to “GTGATTAGGGTAGTGACTGGTGACTAATTCATCACTCACCCGGAGTCACCTAGTGCAG”, for which the binding signal is 33800 fluorescence intensity (a.u.).

“AGTACTGATTGTTCTTTATAATCTTTTAGTACGTTTCATCCGGAGTCACCTAGTGCAG”: the binding signal is 24700 fluorescence intensity (a.u.).

As to “GACTCTAATTGCATGCAGTTCTTCAACTTATTTAGAACGTCGGAGTCACCTAGTGCAG”, the binding signal is 11300 fluorescence intensity (a.u.).

For “CTCTTGACAGTTGACTAGGGATGACAATTTTACCTATGGGCGGAGTCACCTAGTGCAG”, the binding signal was 15200 fluorescence intensity (a.u.).

For “ACGTAATGATTACTTTTAGAAAATAAACATATTTAATAACCGGAGTCACCTAGTGCAG”, the binding signal is 25800 fluorescence intensity (a.u.).

Consider “CACCAATCAGCCCAGCCCACGCAAAGTATCTCTCTCTCTCCGGAGTCACCTAGTGCAG”, for which the binding signal was 10500 fluorescence intensity (a.u.).

In the case of “CGCTAAAATTAGAAGTTTGATTGAAATTAGAACGATGTGACGGAGTCACCTAGTGCAG”, the binding signal was 29200 fluorescence intensity (a.u.).

On to “AAGTTGCCAATTTGATCATCAATTTCAATAGATTAACAACCGGAGTCACCTAGTGCAG”, for which the binding signal is 8650 fluorescence intensity (a.u.).

Consider “TCTGTGGATTACTTTTAAATTACGAATGGAAATTAAAACACGGAGTCACCTAGTGCAG”, for which the binding signal is 4110 fluorescence intensity (a.u.).

With “TAAAATTTAAACTAAATAACTAAGCCCGAGTTTAGTTTCACGGAGTCACCTAGTGCAG”, the binding signal is 9800 fluorescence intensity (a.u.).

As to “AAAGATGATAATTTTGTTCCTTTTCCCACAGATATCCAAACGGAGTCACCTAGTGCAG”, the binding signal was 5780 fluorescence intensity (a.u.).

Take “CATAATTGTTTAAGTGGCATGCAAATATAACTAGGGGACACGGAGTCACCTAGTGCAG”: the binding signal is 24700 fluorescence intensity (a.u.).

As to “TGGTTGACTGGCCCACGTGTCGGTGACGGGGAGTTGCCTGCGGAGTCACCTAGTGCAG”, the binding signal is 19900 fluorescence intensity (a.u.).

Regarding “TTACACGACTAATTAATCTTAGATATATATATATATATATCGGAGTCACCTAGTGCAG”, the binding signal is 4660 fluorescence intensity (a.u.).

In the case of “AATTCATCAATTGATGGAAAGTGAATATTAGGCCTTGGTCCGGAGTCACCTAGTGCAG”, the binding signal was 19900 fluorescence intensity (a.u.).

For “AGAAGATTGATAAGATATGTAAAATTAACGAGATGAGCTACGGAGTCACCTAGTGCAG”, the binding signal is 29800 fluorescence intensity (a.u.).

Regarding “TCGCGCCTCTCCTGCAGCTCCCTCCGTATCAATCCAACGGCGGAGTCACCTAGTGCAG”, the binding signal is 3210 fluorescence intensity (a.u.).

As to “AATTAACATTGACAATTACTTAAGGAGTGCACATTAGTCTCGGAGTCACCTAGTGCAG”, the binding signal is 9150 fluorescence intensity (a.u.).

For the sequence “ATGGATTATTAGATGGATAATATGGGTGGGGATGAAGTGTCGGAGTCACCTAGTGCAG”, the binding signal was 7060 fluorescence intensity (a.u.).

On to “ATCACGGAGGAGGCGTTCGGGGAGGGAGGGTGGGGCGCGCCGGAGTCACCTAGTGCAG”, for which the binding signal was 5950 fluorescence intensity (a.u.).

With “TGTATGCTCATCAACTACTGATTATAATTCATTCATTCCTCGGAGTCACCTAGTGCAG”, the binding signal was 6030 fluorescence intensity (a.u.).

As for “CGGTAACTTCCATCCATCAAATCATCAAACCATCCATGCCCGGAGTCACCTAGTGCAG”, the binding signal was 3630 fluorescence intensity (a.u.).

With “AGTTTATAATTGAACGCAATGATGTAATATAATATTAATGCGGAGTCACCTAGTGCAG”, the binding signal is 25200 fluorescence intensity (a.u.).

As for “AATATTATTGATTAGTTGGGCTTATTCATTCCAAAGAAATCGGAGTCACCTAGTGCAG”, the binding signal was 19200 fluorescence intensity (a.u.).

For the sequence “GGCTTAATTTAGTTTTCGTTGTTTCCGCTCAAACAAATCCCGGAGTCACCTAGTGCAG”, the binding signal was 19400 fluorescence intensity (a.u.).

“ATAACTAATTACAGATTGCGACTAATTTGTGAGACAAATCCGGAGTCACCTAGTGCAG”: the binding signal was 32600 fluorescence intensity (a.u.).

Source of the values: publication PMC7819943, “Rice protein-binding microarrays: a tool to detect cis-acting elements near promoter regions in rice”.
